Some of the results follow. Shown are side measurements of this screen, not its main read-out; they come without a call. Most of these compounds were active or inconclusive in the main read-out, so they are no random draw. The note in brackets gives the kind of curve behind each potency; many fits are weak.
biological target: Histamine N-methyltransferase (Homo sapiens) (UniProt P50135); test: Confirmatory Screen for Target Class Profiling of Small Molecule Inhibitors of Methyltransferases (AID 1745852); details: MTase-Glo luminescence, SAH detection, recombinant enzyme; measured here: HNMT inhibition potency;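 note: inhibitor potency for blocking SAH production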
Tags give direction and shape of the fitted curve.

UniProt P50135, sequence (P50135 whole entry, looked up): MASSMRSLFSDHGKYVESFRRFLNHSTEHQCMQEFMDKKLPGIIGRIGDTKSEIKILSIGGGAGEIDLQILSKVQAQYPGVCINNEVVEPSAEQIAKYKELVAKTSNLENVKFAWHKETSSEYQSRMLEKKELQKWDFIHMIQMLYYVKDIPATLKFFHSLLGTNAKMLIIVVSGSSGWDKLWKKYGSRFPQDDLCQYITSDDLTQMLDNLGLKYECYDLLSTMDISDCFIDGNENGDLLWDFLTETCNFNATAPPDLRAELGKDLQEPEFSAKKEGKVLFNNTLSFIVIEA

Structure (SMILES) | IC50
O=C(CCc1nnc2n(Cc3ccc(Cl)cc3)c(=O)c3ccccc3n12)N1CCC(N2CCCCC2)CC1 | 3.41 µM [falling, full curve]
COc1cccc(-c2cccc(C(=O)N3C[C@H](CO)C[C@H](CN(C)C)C3)c2)c1 | 10.8 µM [falling, partial curve]
CN(C)CCOCC1(C)COc2ccc(C(=O)Nc3ccc4[nH]ccc4c3)cc2N1 (stereo unspecified) | 7.84 µM [falling, full curve]
Cc1cnccc1NCCn1ccnc1-c1cc2n(n1)CCCNC2 | 4.82 µM [falling, partial curve]
c1cc(OCCCN2CCCCC2)ccc1CN1CCCCC1 | 17.1 µM [falling, partial curve]
Cn1c(=O)n(C)c2cc(S(=O)(=O)N3CCN(C4CCCCC4)CC3)c(Cl)cc21 | 15.2 µM [falling, partial curve]
CNCCC(c1cccs1)c1ccc(O)c2ccccc12 (stereo unspecified) | 9.61 µM [falling, partial curve]
Cc1noc(C)c1-c1cc(-c2ccc(CN(C)C)cc2)cn2cncc12 | 11.1 µM [falling, partial curve]
CN(CCCNC(=O)Cn1ccc2cc(S(=O)(=O)N3CCCCC3)ccc21)C1CCCCC1 | 19.2 µM [falling, partial curve]
O=C(OCc1ccccc1)N1CCOCC12CCN(Cc1c[nH]c3ccccc13)CC2 | 31.2 µM [falling, partial curve]
O=C(Nc1ccccc1)c1cnc2c(c1)N(C(=O)Cc1ccc(O)cc1)CCC2 | 9.87 µM [falling, partial curve]

Reference: PubChem BioAssay (NCATS)
